Laboratory results reported in publication PMC4336329 (PLoS ONE, 2015).
The campaign covered roughly 310,000 compounds. About 2,200 (0.71%) showed an effect of 50% or more. Effects have a minus sign here. The list shows a part of the results.

Biological target: human ether-à-go-go-related gene (hERG) potassium channel (human, UniProt Q12809)
Test: primary screen, population patch clamp on CHO cells stably expressing hERG

human ether-à-go-go-related gene (hERG) potassium channel, sequence (Q12809 whole entry, looked up): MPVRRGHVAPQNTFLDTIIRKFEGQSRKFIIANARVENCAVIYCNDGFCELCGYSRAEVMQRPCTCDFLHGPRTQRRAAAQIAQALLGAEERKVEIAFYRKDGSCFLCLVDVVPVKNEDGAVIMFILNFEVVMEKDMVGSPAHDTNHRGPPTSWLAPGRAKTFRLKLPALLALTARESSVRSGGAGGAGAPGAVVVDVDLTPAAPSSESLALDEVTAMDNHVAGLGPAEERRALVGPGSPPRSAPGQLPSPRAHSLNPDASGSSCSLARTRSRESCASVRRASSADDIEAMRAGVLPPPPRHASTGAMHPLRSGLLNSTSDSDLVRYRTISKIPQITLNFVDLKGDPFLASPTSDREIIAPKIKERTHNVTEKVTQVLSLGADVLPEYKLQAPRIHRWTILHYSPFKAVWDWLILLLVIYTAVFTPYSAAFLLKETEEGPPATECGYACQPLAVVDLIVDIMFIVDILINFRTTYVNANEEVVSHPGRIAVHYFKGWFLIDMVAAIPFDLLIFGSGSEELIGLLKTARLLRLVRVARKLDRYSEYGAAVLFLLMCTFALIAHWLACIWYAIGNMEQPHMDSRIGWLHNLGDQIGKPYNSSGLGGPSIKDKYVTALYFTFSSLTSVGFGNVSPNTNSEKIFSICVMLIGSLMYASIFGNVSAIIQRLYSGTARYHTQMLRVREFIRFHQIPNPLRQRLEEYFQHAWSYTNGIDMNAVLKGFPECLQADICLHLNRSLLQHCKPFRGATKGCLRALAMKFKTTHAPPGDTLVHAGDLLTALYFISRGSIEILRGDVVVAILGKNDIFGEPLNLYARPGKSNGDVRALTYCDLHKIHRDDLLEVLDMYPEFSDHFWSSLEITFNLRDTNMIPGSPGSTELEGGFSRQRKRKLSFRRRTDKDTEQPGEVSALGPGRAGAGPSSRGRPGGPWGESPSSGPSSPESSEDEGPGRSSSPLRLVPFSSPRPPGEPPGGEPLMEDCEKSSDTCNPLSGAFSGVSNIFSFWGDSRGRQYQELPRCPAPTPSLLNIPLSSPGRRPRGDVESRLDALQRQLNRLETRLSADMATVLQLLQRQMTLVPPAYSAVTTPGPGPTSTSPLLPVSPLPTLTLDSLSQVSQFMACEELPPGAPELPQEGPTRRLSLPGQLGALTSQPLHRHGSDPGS

| SMILES | hERG current change (%, negative = inhibition) at 1uM [%] |
| --- | --- |
| C/C(=N/OC(=O)c1cccc(C(F)(F)F)c1)c1cnccn1 | 4.48 |
| O=C(Cc1n[nH]c(=O)[nH]c1=O)N/N=C/c1cccc(Cl)c1 | 13.6 |
| CCN(C(=O)c1ccc(C)c(Br)c1)c1ccccc1 | 1.12 |
| CN1/C(=C/C(=O)C2CCC2)Sc2ccccc21 | 14.2 |
| O=C(NC(Cc1ccc(F)cc1)C(=O)O)c1ccccc1 (stereo not shown) | 12.8 |
| COc1cc(/C=N/NC(=O)CN(CCc2ccccc2)S(=O)(=O)c2ccc(NC(C)=O)cc2)cc(OC)c1OC | 1.07 |
| Cc1nc2ccccc2c(=O)n1NC(=O)c1ccccc1Cl | 10.4 |
| Cc1ccc(C(=O)COC(=O)CNC(=O)C(c2ccccc2)c2ccccc2)cc1[N+](=O)[O-] | 8.85 |
| COc1ccc(-c2ccc(-c3nnc(-c4cc(OC)ccc4OC)o3)cc2)cc1 | 5.76 |
| CCN(CC)S(=O)(=O)c1ccc2[nH]c(=O)cc(C(=O)Nc3ccc(C)cc3)c2c1 | 9.25 |
| COCCn1cnc2c1c(=O)n(Cc1ccc(C#N)cc1)c(=O)n2Cc1ccccc1 | -4.86 |
| O=C(c1ccco1)N1CCN(C(=S)Nc2ccccc2C(F)(F)F)CC1 | 6.07 |
| O=C1C2ON(c3ccccc3)C(c3ccncc3)C2C(=O)N1c1ccccc1 (stereo not shown) | 2.82 |
| CCn1c(COc2ccc(C)cc2)nnc1SCC(=O)Nc1ccc(S(N)(=O)=O)cc1 | 9.73 |
| Cn1nc(CC(=O)Nc2ccc3c(c2)OCCO3)c2ccccc2c1=O | 9.68 |
| COc1ccc(C(=O)CCC(=O)N2CCN(c3cc(C)ccc3C)CC2)cc1 | -4.12 |
| CCCn1nnnc1NCc1cccc(OC)c1OC | 11.8 |
| COc1cc(N2CCCC2)c(OC)cc1/C=C(/C#N)c1cccc(Br)c1 | 15.6 |
| COC(=O)Cc1cc(OC)c(OC)cc1Cc1cc(OC)c(OC)cc1CC(=O)OC | 14.7 |
| COc1cc(CCC(=O)Nc2ccc(S(=O)(=O)NC3=NCCCCC3)cc2)cc(OC)c1OC | 11.4 |
| CCC(C(=O)NCc1ccccc1OC)c1ccccc1 (stereo not shown) | 6.18 |
| COc1ccc(-c2nc(C)sc2CC(=O)O)cc1 | 12.6 |

| SMILES | hERG current change (%, negative = inhibition) at 1uM [%] |
| --- | --- |
| Cc1cc(Sc2nccn2C)ncc1[N+](=O)[O-] | 7.02 |
| CCOc1ccc(C(C(=O)NC2CCCC2)N(C(=O)c2snc(C(N)=O)c2N)c2cccc(O)c2)cc1 (stereo not shown) | 11.3 |
| Cc1ccc(S(=O)(=O)N2CCC(C(=O)N[C@@H](C)C(=O)NCc3ccco3)CC2)cc1 | 0.0516 |
| Cc1ccc(S(=O)(=O)/C(C#N)=C/c2c(N3CC(C)OC(C)C3)nc3ccccn3c2=O)cc1 (stereo not shown) | 7.3 |
| COc1ccc(N2CCN(c3oc(-c4ccc(OC)c(OC)c4)nc3C#N)CC2)cc1 | -11 |
| CCOC(=O)c1cc(C(=O)OCC)c(=O)[nH]c1N1CCCCC1 | 16.1 |
| Cc1cc(C(F)(F)F)n2nc(-c3cccs3)cc2n1 | 10.4 |
| CCOC(=O)C1=C(CN2CC(C)CC(C)C2)NC(=O)NC1c1ccc2c(c1)OCO2 (stereo not shown) | -2.2 |
| COc1cccc(-c2nnc(-c3ccccc3NC(=O)c3ccc(C(C)(C)C)cc3)o2)c1 | -18.3 |
| COc1cc(/C=N/NC(=O)c2cccnc2)ccc1OCC(=O)N1CCOCC1 | 11.8 |
| CCC(c1nnnn1CS(=O)(=O)c1ccc(C)cc1)N1CCC(C(N)=O)CC1.Cl (stereo not shown) | -3.7 |
| CCOc1ccc(CNC(=O)C2CCN(c3nnc(C)c4c(C)n(-c5ccc(C)cc5)nc34)CC2)cc1 | 14.6 |
| Clc1ncccc1-c1nc2ccccc2s1 | 12.9 |
| CN(/C=C1/C(=O)CNC1=O)CCO | 9.91 |
| CCOc1ccccc1N1CCN(C(=O)NCc2ccc(C)cc2)CC1 | 16.2 |
| CCOC(=O)C1=C(c2ccccc2)N=c2s/c(=C\c3ccc(O)cc3)c(=O)n2C1c1cccs1 (stereo not shown) | 8.91 |
| CCN(CC)S(=O)(=O)c1cc(C(=O)NCCN2CCOCC2)ccc1Cl.Cl | 4.68 |
| COc1ccc(C(=O)Nn2cnc3scc(-c4cccs4)c3c2=O)c(O)c1 | -1.01 |
| CC1=C(C(=O)OC2CCCC2)C(c2coc3ccccc3c2=O)C2=C(CCCC2=O)N1 (stereo not shown) | 10.3 |
| CCOc1ccc(C(=O)CC(C(=O)O)N2CCCCC2)cc1 (stereo not shown) | 11 |
| CN(C)Cc1nnnn1-c1ccccc1 | 6.13 |
